Experimental data published in article PMC2671562.
These are yes or no findings as the source states them, for the method shown. Some results given as binding are weak or reduced against the parent protein; the word gives no strength. One block for each substance: values may come before it.

How the values were obtained:
[1] = molecular target: T1, Drosophila TIMELESS, full-length, two-hybrid bait (Drosophila) (UniProt P49021); test: two-hybrid; dPER fragments as prey (pJG4–5), full-length dTIM as bait (pEG202), yeast EGY48, lacZ reporter on X-Gal medium, 2–3 d at 30 °C
T1 sequence: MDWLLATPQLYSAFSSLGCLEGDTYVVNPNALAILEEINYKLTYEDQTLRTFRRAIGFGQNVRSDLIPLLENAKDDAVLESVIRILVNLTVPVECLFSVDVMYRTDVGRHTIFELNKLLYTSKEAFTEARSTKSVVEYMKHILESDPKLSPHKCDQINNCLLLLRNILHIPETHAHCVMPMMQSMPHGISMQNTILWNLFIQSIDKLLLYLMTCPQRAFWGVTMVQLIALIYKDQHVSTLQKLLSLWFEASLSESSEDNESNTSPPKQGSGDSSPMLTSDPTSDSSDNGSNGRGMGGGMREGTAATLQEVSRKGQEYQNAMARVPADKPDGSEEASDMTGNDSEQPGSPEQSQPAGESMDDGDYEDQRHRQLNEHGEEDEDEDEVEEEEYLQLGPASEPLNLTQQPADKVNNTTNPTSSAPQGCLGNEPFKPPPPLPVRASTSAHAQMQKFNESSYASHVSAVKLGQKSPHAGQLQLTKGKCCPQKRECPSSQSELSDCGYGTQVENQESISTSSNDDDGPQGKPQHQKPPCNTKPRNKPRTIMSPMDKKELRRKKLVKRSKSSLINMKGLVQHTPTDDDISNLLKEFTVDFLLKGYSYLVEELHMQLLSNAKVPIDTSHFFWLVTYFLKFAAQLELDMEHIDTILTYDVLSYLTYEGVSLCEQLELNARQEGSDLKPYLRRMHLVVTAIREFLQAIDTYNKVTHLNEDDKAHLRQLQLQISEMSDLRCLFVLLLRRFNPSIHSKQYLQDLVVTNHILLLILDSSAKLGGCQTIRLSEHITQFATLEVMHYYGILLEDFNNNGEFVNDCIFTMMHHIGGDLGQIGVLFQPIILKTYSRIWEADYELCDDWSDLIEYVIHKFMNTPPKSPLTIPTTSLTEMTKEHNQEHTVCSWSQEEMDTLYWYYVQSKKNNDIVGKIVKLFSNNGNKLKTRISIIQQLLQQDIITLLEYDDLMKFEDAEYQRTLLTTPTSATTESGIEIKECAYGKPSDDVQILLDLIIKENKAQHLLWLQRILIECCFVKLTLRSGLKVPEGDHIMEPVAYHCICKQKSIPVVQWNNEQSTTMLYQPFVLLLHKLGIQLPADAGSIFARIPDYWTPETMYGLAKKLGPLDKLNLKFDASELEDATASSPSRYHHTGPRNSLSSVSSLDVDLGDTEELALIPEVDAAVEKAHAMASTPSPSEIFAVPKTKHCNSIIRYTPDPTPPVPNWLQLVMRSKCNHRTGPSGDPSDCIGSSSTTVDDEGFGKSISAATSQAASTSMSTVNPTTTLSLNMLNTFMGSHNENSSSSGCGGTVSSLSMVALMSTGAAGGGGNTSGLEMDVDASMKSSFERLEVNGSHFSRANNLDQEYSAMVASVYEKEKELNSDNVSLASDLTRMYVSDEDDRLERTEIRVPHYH

[2] = molecular target: dPER[232–599] E474R/H492S/R494D (Drosophila melanogaster) (UniProt P07663); test: SEC; gel filtration of the dPER[232–599] E474R/H492S/R494D mutant, unpublished data; both purified
[3] = molecular target: dPER[232–599] M560D/W482E (Drosophila melanogaster) (UniProt P07663); test: AUC; sedimentation equilibrium, interference optics, 10 °C, 25 mM HEPES pH 7.7, 100 mM NaCl, 2 mM DTE; four starting concentrations from stocks of 0.8–2 mg/ml; dimer to monomers, K D = 1/K A; both purified
[4] = molecular target: dPER[232–599] M560D/W482E (Drosophila melanogaster) (UniProt P07663); test: SEC; analytical gel filtration of GST-free dPER fragments, HiLoad Superdex 200 16/60, 4 °C, 25 mM HEPES pH 7.7, 200 mM NaCl, 2 mM DTE; 1 ml of 5–10 mg/ml loaded; both purified

binding [1]: no binding
Substance: dPERΔαF[232–538] E474R/H492S/R494D, two-hybrid prey (from UniProt P07663 232-538) (domain or fragment)

binding [2]: binds
Substance: dPER[232–599] E474R/H492S/R494D (from UniProt P07663 232-599) (domain or fragment)

binding [1]: binds
Substance: dPERΔαF[232–538], wild-type, two-hybrid prey (from UniProt P07663 232-538) (domain or fragment)

Substance: dPER[232–599] M560D/W482E (from UniProt P07663 232-599) (domain or fragment)
binding [3]: no binding (tested: stock solutions 0.8–2 mg/ml) | binding [4]: no binding (tested: 1 ml of 5–10 mg/ml loaded)
